The values below come from paper PMC3901934.

Chains of the proteins cited; added tags and fusions are not shown.
UniProt Q8VI36: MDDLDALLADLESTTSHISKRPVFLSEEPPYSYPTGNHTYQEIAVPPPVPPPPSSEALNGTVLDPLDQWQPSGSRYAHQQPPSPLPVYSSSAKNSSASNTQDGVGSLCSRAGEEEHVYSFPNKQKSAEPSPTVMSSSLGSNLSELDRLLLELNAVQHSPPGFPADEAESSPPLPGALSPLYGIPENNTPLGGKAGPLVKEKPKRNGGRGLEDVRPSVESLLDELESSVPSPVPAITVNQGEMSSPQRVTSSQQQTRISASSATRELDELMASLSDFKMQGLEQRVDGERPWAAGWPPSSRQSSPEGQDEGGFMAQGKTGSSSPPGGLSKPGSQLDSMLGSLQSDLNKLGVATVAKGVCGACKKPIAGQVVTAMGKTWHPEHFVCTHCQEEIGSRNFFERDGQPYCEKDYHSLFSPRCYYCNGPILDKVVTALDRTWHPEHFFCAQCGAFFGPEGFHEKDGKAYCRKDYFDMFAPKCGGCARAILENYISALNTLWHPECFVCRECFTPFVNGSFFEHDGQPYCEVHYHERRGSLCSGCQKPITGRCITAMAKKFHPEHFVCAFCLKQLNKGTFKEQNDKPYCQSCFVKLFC

For this test, the target named is T1, Vin PNSS GFP (GFP-fused vinculin with PKPP in the proline-rich region changed to PNSS) (UniProt Q64727).
T1 sequence: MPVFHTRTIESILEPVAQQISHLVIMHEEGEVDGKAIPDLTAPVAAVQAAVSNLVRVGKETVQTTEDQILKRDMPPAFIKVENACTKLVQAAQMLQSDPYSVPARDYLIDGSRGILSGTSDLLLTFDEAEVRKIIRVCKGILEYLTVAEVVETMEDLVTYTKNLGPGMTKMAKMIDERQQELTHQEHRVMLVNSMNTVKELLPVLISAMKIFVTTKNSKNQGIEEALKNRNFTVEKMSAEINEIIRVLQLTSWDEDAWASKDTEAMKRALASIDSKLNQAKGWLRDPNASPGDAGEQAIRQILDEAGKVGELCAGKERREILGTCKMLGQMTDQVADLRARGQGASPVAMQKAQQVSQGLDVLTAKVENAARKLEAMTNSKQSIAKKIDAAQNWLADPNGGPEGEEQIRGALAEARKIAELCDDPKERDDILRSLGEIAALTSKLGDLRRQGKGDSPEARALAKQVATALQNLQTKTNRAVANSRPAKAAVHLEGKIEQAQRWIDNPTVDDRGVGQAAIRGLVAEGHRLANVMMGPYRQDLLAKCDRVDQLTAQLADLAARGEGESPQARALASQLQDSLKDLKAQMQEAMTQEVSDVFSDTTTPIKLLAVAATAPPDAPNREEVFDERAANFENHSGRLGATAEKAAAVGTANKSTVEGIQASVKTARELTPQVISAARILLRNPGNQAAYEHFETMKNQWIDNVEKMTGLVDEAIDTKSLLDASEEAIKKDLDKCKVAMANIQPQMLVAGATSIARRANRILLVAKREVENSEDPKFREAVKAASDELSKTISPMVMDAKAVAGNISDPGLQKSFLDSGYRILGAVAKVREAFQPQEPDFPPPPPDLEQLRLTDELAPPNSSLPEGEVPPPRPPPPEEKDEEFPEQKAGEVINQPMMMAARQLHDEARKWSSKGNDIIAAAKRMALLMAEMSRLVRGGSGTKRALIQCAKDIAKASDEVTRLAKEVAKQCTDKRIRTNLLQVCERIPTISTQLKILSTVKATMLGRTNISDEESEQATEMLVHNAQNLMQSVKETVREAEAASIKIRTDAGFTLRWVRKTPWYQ
Briefly: co-IP; GFP vinculin (WT or PNSS) immunoprecipitated with anti-GFP from Vin-/- MEFs; NP-40 lysis buffer; blots with CAS, paxillin and Arp2 antibodies.

These are yes or no findings as the source states them, for the method shown. In cells and extracts the contact can be indirect. Some binding calls cover weakened binding; strength is not graded here. Tags and fused reporters may be left off the sequences shown.

As to “paxillin (in Vin-/- MEFs) (from UniProt Q8VI36 1-591)”, the binding entry is “binds”.
